Values of other authors as cited in article PMC11006913.
Some of the results follow.

Target: NKX2-5 K183E (Homo sapiens) (UniProt P52952)
Details: PBM; conditions not shown; double strand, one strand shown; scale: upbm affinity estimate (log intensity, higher = more binding, comparable within an allelic series)

Chain of UniProt P52952 (P52952 125-210 K183E): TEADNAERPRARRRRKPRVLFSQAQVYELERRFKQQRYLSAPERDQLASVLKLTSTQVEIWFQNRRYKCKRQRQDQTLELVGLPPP

| Sequence | binding signal |
| --- | --- |
| GACCCTCA [8-mer GACCCTCA] | 10.5 |
| GCACTTCC [8-mer GCACTTCC] | 10.5 |
| GCACTCAC [8-mer GCACTCAC] | 10.6 |
| CAGGGCGG [8-mer CAGGGCGG] | 10 |
| AAGAGCAT [8-mer AAGAGCAT] | 11 |
| ATAAGGGG [8-mer ATAAGGGG] | 11.1 |
| AGAGTGCG [8-mer AGAGTGCG] | 10.5 |
| CAAGGGCC [8-mer CAAGGGCC] | 10.5 |
| ATCTCAAG [8-mer ATCTCAAG] | 11 |
| CTCGAGAG [8-mer CTCGAGAG] | 10.8 |
| GCCACTTA [8-mer GCCACTTA] | 12.4 |
| AAGAGCCC [8-mer AAGAGCCC] | 10.4 |
| CCGGGTCC [8-mer CCGGGTCC] | 9.82 |
| GCTCTTCA [8-mer GCTCTTCA] | 10.7 |
| GAGTGCCC [8-mer GAGTGCCC] | 10.5 |
| AGTGTCTG [8-mer AGTGTCTG] | 10.8 |
| TCTTAACA [8-mer TCTTAACA] | 11.1 |
| GCTCTCAA [8-mer GCTCTCAA] | 10.5 |
| CTCCACTC [8-mer CTCCACTC] | 10.7 |
| ACCCTCTA [8-mer ACCCTCTA] | 10.8 |

| Sequence | binding signal |
| --- | --- |
| CGCAGGGA [8-mer CGCAGGGA] | 10.1 |
| AGTGTTAA [8-mer AGTGTTAA] | 11.1 |
| ATCAATTG [8-mer ATCAATTG] | 11.3 |
| CCGGGCCG [8-mer CCGGGCCG] | 9.86 |
| CTGGCGGC [8-mer CTGGCGGC] | 10.1 |
| CAGGCGCG [8-mer CAGGCGCG] | 10 |
| GACCATTA [8-mer GACCATTA] | 11 |
| TACTCCAA [8-mer TACTCCAA] | 10.9 |
| ACGCCCCA [8-mer ACGCCCCA] | 10.3 |
| AGGAGTGC [8-mer AGGAGTGC] | 10.6 |
| CCGAGTGC [8-mer CCGAGTGC] | 10.3 |
| GGGGCACC [8-mer GGGGCACC] | 10.2 |
| AAGGGTCT [8-mer AAGGGTCT] | 10.5 |
| CAGCGCCG [8-mer CAGCGCCG] | 9.98 |
| AAGTGTAA [8-mer AAGTGTAA] | 10.9 |
| ATTAAGGG [8-mer ATTAAGGG] | 10.9 |
| CAAGTAGG [8-mer CAAGTAGG] | 10.7 |
| ACACTTTC [8-mer ACACTTTC] | 10.9 |
| GAAAGTGC [8-mer GAAAGTGC] | 10.5 |
